First the molecules themselves.
B1: LINE1-mini (parent)
chain: GGCAGAGCUCAACACAGCGUGGCAAAGUGGCUGUGGCUAGACUGCC

The source gives no read counts; variants with many changes may rest on few reads.

Variants of B1 are the subject of this series. The experiment in a line: self-cleavage, relative activity (ratio to wild type); higher = more cleavage; in vitro, sequencing; the parent is a self-cleaving ribozyme.
Consider GCCAGAGCUCAGCACCGCCUGGCAAAGUGGCUAAAGCUCGACUCCC [G2C A12G A16C G19C G33A U34A G35A A39C G44C], for which the self-cleavage was found to be 0.01.

Consider GCCGGAGCUCAAGAUAGUGUGGCAAAGUGGCUGUAGCUAGACUGCC [G2C A4G C13G C15U C18U G35A], for which the self-cleavage was 0.25.

Regarding GCCAGAGCUCCACACAACGUGGCAAAGUGGCUGUGGCUAGACUGCC [G2C A11C G17A], the self-cleavage stood at 0.01.

GCCAGAGCUCCACCCAGUGUGGCAAAGUGGCUGUGGCUAGACUGCC [G2C A11C A14C C18U]: the self-cleavage stood at 0.02.

Turning to GCCAGAGCUCUACCCAGCGUGGCAAAGUGGCUGUGCUUAGACUGCC [G2C A11U A14C G36C C37U], the self-cleavage stood at 0.02.

Turning to GCCAGGGCUCAACACAACGAGGCAAAGUGGCUGUGGCUAGACUGCC [G2C A6G G17A U20A], the self-cleavage worked out at 0.02.

Turning to GCCAGAGCUCAGCACAGCGUGGCAAAGUGGCUAUGGCUAGACUGCC [G2C A12G G33A], the self-cleavage is 0.04.

GACAGAGCUCAACACAGCGUGGCAAAGCGGCAGUGGCUAGACUGCC [G2A U28C U32A]: the self-cleavage is 0.26.

For GACAGAGCUCAACACAGCGUGGCAAAGACGCUGUGGCUAGACUGCC [G2A U28A G29C], the self-cleavage came to 0.2.

For GCCAGUGCUCCACACAACGUGGCAAAGUUGCUGUGGCUAGACUGCC [G2C A6U A11C G17A G29U], the self-cleavage was 0.01.

On to GCCAGGUCUCACCACAGCGUGGCAAAGUGGCUGUGGCUAGACUGCC [G2C A6G G7U A12C], for which the self-cleavage is 0.02.

Take GCCAGGGCUCAUCACAAGGUGGCAGAGUGGCUGUUGCUAGGCUGUC [G2C A6G A12U G17A C18G A25G G35U A41G C45U]: the self-cleavage is 0.

For GCCAGGGCUCAAAUCAGCGUGGCAAAGUGGCUGUGGCUAGACUGCC [G2C A6G C13A A14U], the self-cleavage came to 0.13.

Take GCCUGAGCGCAUCACUGCGUGGCAAAGUGGCUGUGGUUAGACUGCC [G2C A4U U9G A12U A16U C37U]: the self-cleavage was 0.01.

As to GCCGGAGGUCAACACAGCGUUGCAAAGUUGCUGUGGCUAGACUGCC [G2C A4G C8G G21U G29U], the self-cleavage was 0.01.

For GCCAGAGCUCACCACAGAGUGGCACAGUGGCUGUGGCUAGACUGCC [G2C A12C C18A A25C], the self-cleavage was found to be 0.03.

With GCCCGAGCUGAACACAGCGUGGCUAAGCGGCUGUCGCUAGACUGCA [G2C A4C C10G A24U U28C G35C C46A], the self-cleavage was determined as 0.

With GCCAGUGCUCAGCACAGCGUGGCAAAGUGGCUAUGGCUAGACUGCC [G2C A6U A12G G33A], the self-cleavage is 0.22.

For GCCAGAGCUCAUCACAGCGUGUCAAAGUGGCUGUGGCUAGACUGCC [G2C A12U G22U], the self-cleavage came out at 0.06.

For GCCAGAGCUCAACCCAUCGUAGCUACGUGGCUGUGGCUAGACUCCC [G2C A14C G17U G21A A24U A26C G44C], the self-cleavage amounted to 0.11.

Turning to GCCGGAGCUCAACACAGCGUGGUAAUGUGGCUGUGGCUAGACUCCC [G2C A4G C23U A26U G44C], the self-cleavage came to 0.02.

Regarding GCCCGAUCUCAACACAGCGUGGCAAAGUGGCUGUGGCUAUACUGCC [G2C A4C G7U G40U], the self-cleavage was 0.04.

In the case of GCCAGGGCUCAACACAGAGUCGCAAAGUGGCUGUGGCUAGACUGCU [G2C A6G C18A G21C C46U], the self-cleavage came out at 0.03.

As for GCCAGAGCUCUACACAGCGUGGCAAAGUGGCAGUGGCUAGACUGCC [G2C A11U U32A], the self-cleavage came to 0.02.

As for GCCCGAGCUCAACACAGCGUGGCAGAGUGGCUGUGGCCAGACUGCC [G2C A4C A25G U38C], the self-cleavage was determined as 0.06.

Take GCCAGAGCUCUACACGGCGUGUCAAAGUGGCUGUGGCUAGACUGCC [G2C A11U A16G G22U]: the self-cleavage was 0.01.

In the case of GCCUGAGUUCAACACAGCUUGGCAAAAAGGCUGUCGCUCGACUGCC [G2C A4U C8U G19U G27A U28A G35C A39C], the self-cleavage was 0.12.

As for GCCGGAGCUCAACACAGCGUGGCAAAGUAGCUGUGGCUAGACUGCC [G2C A4G G29A], the self-cleavage was found to be 0.18.

With GCCCGGGCUCGACACAGUGUGGCAAAGUGGCUGUGGCUAGACUGCC [G2C A4C A6G A11G C18U], the self-cleavage came out at 0.02.

In the case of GACAGAGCUCAACACAGCGUGGCAAAGUGGCUGCGGCUAGAUUGCC [G2A U34C C42U], the self-cleavage stood at 0.03.

Regarding GCCUGAGCGCACCUCAGCGUGGCAAAGUGGCUGUGGCUAGACUGCC [G2C A4U U9G A12C A14U], the self-cleavage stood at 0.04.

For the variant GCCAGGGCCCAACACACCGUGGCAAAGUGGCUGUGGCUAGACUGCC [G2C A6G U9C G17C], the self-cleavage came out at 0.02.

Take GCCUGAGGUCAACACAGCCUGGCAAAGUGGCUGUGGCUAGACUGCC [G2C A4U C8G G19C]: the self-cleavage worked out at 0.02.

Turning to GCCUGAGCUCAACACAGAGUGGCAAAGUGGCUGUGGGUAGACUGCC [G2C A4U C18A C37G], the self-cleavage came out at 0.05.

GCCAGAGCUCUACACAGCGUGGCAACGUGGCUGUGGCUUGACCGCC [G2C A11U A26C A39U U43C]: the self-cleavage worked out at 0.

Regarding GCCAGCACUCAACACAGCGUCGCAAGGUGGCUGUGGCCACACUGCC [G2C A6C G7A G21C A26G U38C G40C], the self-cleavage is 0.05.

Turning to GCCGAAGCUCAACACUGCGUGGCAAUGUGCCUGUGGCUAGACUGCC [G2C A4G G5A A16U A26U G30C], the self-cleavage was determined as 0.08.

Consider GCCAGAGCUCUACAAAGCUUGGCAAAGUGGCUGUGCCUAGACUGCC [G2C A11U C15A G19U G36C], for which the self-cleavage was 0.01.

For the variant GCCAGAGCUCAACCCACCGUGGCAUAGUGGCUGUGGCUAGACUGCC [G2C A14C G17C A25U], the self-cleavage was 0.02.

As for GCCAGAGCUCCACGCAGGGAGCCAAAGUGGCUGUGGCUAGACUGCC [G2C A11C A14G C18G U20A G22C], the self-cleavage is 0.01.

Regarding GCCAGAGCUCACCACAGCGUGGCAAAGUGCCUGUGGCUAGACUGCC [G2C A12C G30C], the self-cleavage was determined as 0.1.

For GCCAGCGCUCGACACAGCGUAGCAAAGUGGCUGUGGCUAGACUGCC [G2C A6C A11G G21A], the self-cleavage was determined as 0.02.

Consider GCCAGAGCUCAACCCAGCGUGGCAAAGUGGCUGUGGUUAGCCUGCC [G2C A14C C37U A41C], for which the self-cleavage was 0.03.

Consider GCCUGAGAUCAACACACCCUGGCAAUGUGGCGGUGGCUAGACUGCC [G2C A4U C8A G17C G19C A26U U32G], for which the self-cleavage is 0.03.

As to GCCAGAGCUCCACACAGCGUGGCAAAGUGGCUGUGUCUAGACUUCA [G2C A11C G36U G44U C46A], the self-cleavage worked out at 0.01.

For the variant GCCAGAGCUCCACACACCGUGGCAAUGUUGCUGUGGCUAGACUGCC [G2C A11C G17C A26U G29U], the self-cleavage came to 0.02.

As for GCCUGAGCUAAACAUAGCGUGGCAAAGUGGCUGUGGCUCGACUGCC [G2C A4U C10A C15U A39C], the self-cleavage was found to be 0.04.

As to GCCAGAGCUCAACCCAGCGUGGCAAAGUGACUGUGUCUAGACUGCC [G2C A14C G30A G36U], the self-cleavage amounted to 0.33.

For the variant GCCAGAGCUCGACACAGCGUGGCGAAGUGGCUGUGGCUAGACUGCC [G2C A11G A24G], the self-cleavage is 0.01.

As for GCCCGAAUUCAACACAGAGUGGCAAAGUGGCUGUGGCUAGACUGCC [G2C A4C G7A C8U C18A], the self-cleavage is 0.23.

Take GCCAGAGCUCUACACAGUGUCGGAAACUGGCUGUGGCUAGACUGCC [G2C A11U C18U G21C C23G G27C]: the self-cleavage was determined as 0.01.

Consider GCCAGAGCUCACCACAGCGUGGCAAAGUGGCUGUGGCUAGACUACC [G2C A12C G44A], for which the self-cleavage is 0.09.

Consider GCCAGCGCUCAACACAGCGUGACAAAGUGGCUGUGGCUAGACUGCC [G2C A6C G22A], for which the self-cleavage turned out to be 0.12.

On to GCCAGGGCGAAACACAGCCUGGCAAAGUGGCUGUGACUAGACUGUC [G2C A6G U9G C10A G19C G36A C45U], for which the self-cleavage was found to be 0.01.

As to GCCUGAGCUCAACACAACGUGGCAAACUGGCUGUGGCUACACUGCC [G2C A4U G17A G27C G40C], the self-cleavage is 0.03.

On to GCCGGAGCUCAACACAGCGUGGCAACGUGGCUGCGGCUAGACUGCC [G2C A4G A26C U34C], for which the self-cleavage was 0.09.

The values above are taken from the RNAGym collection of RNA variant scans (doi:10.7554/elife.90254).
